# Publication PMC2908078, “The YEATS family member GAS41 interacts with the general transcription factor TFIIF” (BMC Molecular Biology, 2010)
# Amino acid sequences for entries named in this document (tags omitted). A change or cut given only in a name is not applied to a line headed by its entry. Residues count along the entry.
# UniProt O95619: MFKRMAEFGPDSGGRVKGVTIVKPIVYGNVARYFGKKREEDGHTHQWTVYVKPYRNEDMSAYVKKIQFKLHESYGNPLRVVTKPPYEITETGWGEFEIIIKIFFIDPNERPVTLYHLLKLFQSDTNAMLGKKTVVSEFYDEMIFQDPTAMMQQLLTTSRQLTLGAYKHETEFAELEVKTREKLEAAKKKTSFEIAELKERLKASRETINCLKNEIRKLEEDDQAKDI
# UniProt P13984: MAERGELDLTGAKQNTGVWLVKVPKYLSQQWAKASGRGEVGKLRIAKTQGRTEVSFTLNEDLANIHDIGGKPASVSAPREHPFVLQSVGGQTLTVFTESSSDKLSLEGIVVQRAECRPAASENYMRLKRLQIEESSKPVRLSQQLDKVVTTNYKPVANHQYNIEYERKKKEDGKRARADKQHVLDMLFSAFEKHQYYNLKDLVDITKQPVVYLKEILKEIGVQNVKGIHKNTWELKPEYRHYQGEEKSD
# GST-RAP30 d1 (RAP74 binding domain, aa1-100): residues 1-100 of P13984
# UniProt P35269: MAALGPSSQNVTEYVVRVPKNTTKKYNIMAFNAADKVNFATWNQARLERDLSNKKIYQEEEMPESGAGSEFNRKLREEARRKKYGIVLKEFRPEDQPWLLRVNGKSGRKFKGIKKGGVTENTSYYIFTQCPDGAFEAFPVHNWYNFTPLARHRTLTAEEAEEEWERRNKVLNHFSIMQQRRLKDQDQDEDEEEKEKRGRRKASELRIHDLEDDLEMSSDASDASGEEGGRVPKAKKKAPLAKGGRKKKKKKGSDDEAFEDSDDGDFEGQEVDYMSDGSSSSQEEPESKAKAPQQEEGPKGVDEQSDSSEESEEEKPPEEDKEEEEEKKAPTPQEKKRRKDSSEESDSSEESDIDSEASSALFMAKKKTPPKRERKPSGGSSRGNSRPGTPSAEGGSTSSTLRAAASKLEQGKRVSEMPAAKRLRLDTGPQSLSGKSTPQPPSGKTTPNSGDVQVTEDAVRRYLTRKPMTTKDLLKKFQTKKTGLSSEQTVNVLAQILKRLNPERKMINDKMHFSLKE
# UniProt P20226: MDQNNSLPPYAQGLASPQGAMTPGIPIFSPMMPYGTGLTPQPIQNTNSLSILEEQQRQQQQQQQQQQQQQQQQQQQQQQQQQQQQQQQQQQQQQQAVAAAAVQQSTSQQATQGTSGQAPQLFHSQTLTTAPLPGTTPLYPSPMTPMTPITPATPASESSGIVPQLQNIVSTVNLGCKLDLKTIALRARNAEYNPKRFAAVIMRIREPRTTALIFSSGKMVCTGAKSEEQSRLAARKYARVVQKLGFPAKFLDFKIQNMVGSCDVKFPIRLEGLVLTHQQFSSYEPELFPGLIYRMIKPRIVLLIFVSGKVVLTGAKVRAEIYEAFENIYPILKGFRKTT
# Results are given in words; binding and its absence hold for the method and conditions named. For some assays here: Binding seen in cells or lysates may run through a third protein. Some entries that bind do so weakly or less than the wild type.
# Key:
# [1] = target: endogenous GAS41 (HeLa nuclear extract) (human (endogenous in HeLa)) (UniProt O95619); assay: co-IP; HeLa nuclear extracts, polyclonal GAS41 antibodies or rabbit IgG isotype control on protein A-sepharose; immunoblot with RAP30 and RAP74 antibodies; all proteins endogenous
# [2] = target: GST-GAS41 (glioma amplified sequence 41, GST-tagged, full length) (human) (UniProt O95619); assay: pull-down; GST-GAS41 sepharose incubated with HeLa nuclear extract, washed with PBS then PBS with increasing NaCl (0.14 M up to 0.4 M), 45 min at 4°C; immunoblot for RAP30; only the target purified
# [3] = target: GST-GAS41 (glioma amplified sequence 41, GST-tagged, full length) (human) (UniProt O95619); assay: pull-down; GST-GAS41 on glutathione-sepharose 4B, incubated with 250 ug HeLa nuclear extract (Promega) over night at 4°C; immunoblot with RAP30 and RAP74 antibodies; only the target purified
# [4] = target: GST-GAS41 (glioma amplified sequence 41, GST-tagged, full length) (human) (UniProt O95619); assay: pull-down; GST-GAS41 sepharose incubated with HeLa nuclear extract, washed with PBS containing 0.5 M NaCl, 45 min at 4°C; immunoblot for RAP30; only the target purified
# [5] = target: GST-RAP30 d1 (RAP74 binding domain, aa1-100) (human) (UniProt P13984); assay: pull-down; GST-RAP30 full length or fragments d1-d3 on glutathione-sepharose 4B as bait, purified His-GAS41 (10-20 ug) as prey, over night at 4°C; immunoblot; both purified
# FLAG-RAP30 (human) = FLAG-RAP30 (human) (UniProt P13984); assay: co-IP; HEK293 co-transfected with HA-GAS41 and FLAG-RAP30; lysate (150 mM NaCl, 50 mM Tris/HCl pH 8.0, 1% NP40) on FLAG-M2 agarose over night at 4°C; immunoblot
# HA-GAS41 (human) [6] = target: HA-GAS41 (human) (UniProt O95619); assay: co-IP; HEK293 co-transfected with HA-GAS41 and FLAG-RAP30; lysate on anti-HA agarose (HA-Tag IP/Co-IP kit); immunoblot with FLAG antibody
# HA-GAS41 (human) [7] = target: HA-GAS41 (human) (UniProt O95619); assay: co-IP; HEK293 transfected with pSG5-HA-GAS41 or pSG5; immunoprecipitation of HA-GAS41; immunoblot for endogenous TBP and RNA polymerase II
substance,measurement,setting,value
endogenous RAP30 (HeLa nuclear extract) (from UniProt P13984 1-249),binding,[1],binds
same,binding,[2],binds
same,binding,[3],binds
same,binding,[4],binds weakly
His-GAS41 (from UniProt O95619 1-227),binding,[5],no binding
endogenous GAS41 (HEK293) (from UniProt O95619 1-227),binding,FLAG-RAP30 (human),binds
endogenous RAP74 (HeLa nuclear extract) (from UniProt P35269 1-517),binding,[1],binds
same,binding,[3],binds
FLAG-RAP30 (from UniProt P13984 1-249),binding,HA-GAS41 (human) [6],binds
HA-GAS41 (from UniProt O95619 1-227),binding,FLAG-RAP30 (human),binds
"TATA binding protein (TBP), endogenous (from UniProt P20226 1-339)",binding,HA-GAS41 (human) [7],no binding
